# Some of the results follow.
# B1: PhoQ; a variant is named by its letters at X, in order, P23837 (parent)
# chain: MKKLLRLFFPLSLRVRFLLATAAVVLVLSLAYGMVALIGYSVSFDKTTFRLLRGESNLFYTLAKWENNKLHVELPENIDKQSPTMTLIYDENGQLLWAQRDVPWLMKMIQPDWLKSNGFHEIEADVNDTSLLLSGDHSIQQQLQEVREDDDDAEMTHSVAVNVYPATSRMPKLTIVVVDTIPVELKSSYMVWSWFIYVLSANLLLVIPLLWVAAWWSLRPIEALAKEVRELEEHNRELLNPATTRELTSLVRNLNRLLKSERERYDKYRTTLTDLTHSLKTPLXXLQXXLRSLRSEKMSVSDAEPVMLEQISRISQQIGYYLHRASMRGGTLLSRELHPVAPLLDNLTSALNKVYQRKGVNISLDISPEISFVGEQNDFVEVMGNVLDNACKYCLEFVEISARQTDEHLYIVVEDDGPGIPLSKREVIFDRGQRVDTLRPGQGVGLAVAREITEQYEGKIVAGESMLGGARMEVIFGRQHSAPKDE
# Variants of: B1
# Test: enrichment ratio after two sorts for PhoP signalling (ratio (wild type AVST 3.29)); higher = more functional
# Details: with PhoP (E. coli)
row,Variant,enrichment ratio
1,SSMT,10.9
2,HKFK,≤ 0.25
3,QYHW,≤ 0.25
4,ITGQ,≤ 0.25
5,QKRH,≤ 0.25
6,PEIE,≤ 0.25
7,GSCQ,8.75
8,MLCE,≤ 0.25
9,PDDW,≤ 0.25
10,SMTN,4.88
11,RITD,≤ 0.25
12,HGCD,≤ 0.25
13,LPRK,≤ 0.25
14,VNKQ,≤ 0.25
15,FDKD,≤ 0.25
16,YTIV,0.385
17,ICTP,≤ 0.25
18,MKMP,≤ 0.25
19,WISK,≤ 0.25
20,IPCS,≤ 0.25
21,WICV,≤ 0.25
22,LYAW,≤ 0.25
23,NKKI,≤ 0.25
24,GVGH,≤ 0.25
25,NKSR,≤ 0.25
26,ILRW,≤ 0.25

row,Variant,enrichment ratio
1,SWKE,≤ 0.25
2,WGWC,≤ 0.25
3,NFCS,≤ 0.25
4,GFTK,≤ 0.25
5,SYMP,≤ 0.25
6,TQWG,18.3
7,GFDG,≤ 0.25
8,VTYW,≤ 0.25
9,KPMF,≤ 0.25
10,TQMW,3.21
11,ADSR,≤ 0.25
12,MRPK,≤ 0.25
13,DDKG,≤ 0.25
14,PENR,≤ 0.25
15,FKPA,≤ 0.25
16,GRHH,≤ 0.25
17,TCIL,≤ 0.25
18,VYNY,0.314
19,KIKS,≤ 0.25
20,METN,1.27
21,IKDK,≤ 0.25
22,IWPG,≤ 0.25
23,CLFH,≤ 0.25
24,NGFA,≤ 0.25
25,REFK,≤ 0.25
26,WRGA,≤ 0.25

row,Variant,enrichment ratio
1,YTLQ,12.8
2,IGNA,≤ 0.25
3,LKPA,≤ 0.25
4,TIRM,5.12
5,REKY,≤ 0.25
6,YCHC,≤ 0.25
7,MDDV,≤ 0.25
8,SLST,2.81
9,NADY,≤ 0.25
10,FMKM,≤ 0.25
11,IEQP,≤ 0.25
12,TFYH,≤ 0.25
13,GYEY,≤ 0.25
14,QIYT,2.99
15,SVDM,≤ 0.25
16,RLHW,≤ 0.25
17,DCDC,≤ 0.25
18,WLCH,≤ 0.25
19,NMMF,≤ 0.25
20,PQQP,≤ 0.25
21,TLQH,21.1
22,YNYS,≤ 0.25
23,LQCN,≤ 0.25
24,FCLL,10.7
25,TMWS,≤ 0.25
26,STQP,≤ 0.25

row,Variant,enrichment ratio
1,GHYL,0.671
2,TSPC,≤ 0.25
3,VKNM,≤ 0.25
4,RSQS,≤ 0.25
5,KPNC,≤ 0.25
6,DHLT,≤ 0.25
7,MPCY,≤ 0.25
8,HPFS,≤ 0.25
9,EPTK,≤ 0.25
10,LVVS,≤ 0.25
11,IISS,≤ 0.25
12,PVLP,≤ 0.25
13,VNSP,≤ 0.25
14,SCAH,8.14
15,SNLY,5.35
16,AFAC,≤ 0.25
17,LQDD,≤ 0.25
18,WMLL,≤ 0.25
19,TWAE,≤ 0.25
20,RYPP,≤ 0.25
21,AYMQ,0.322
22,ESKH,≤ 0.25
23,ASWS,≤ 0.25
24,IMTS,≤ 0.25
25,MGVA,≤ 0.25
26,DPVC,≤ 0.25

row,Variant,enrichment ratio
1,QWNG,≤ 0.25
2,SHAS,≤ 0.25
3,GTRL,≤ 0.25
4,IRMV,≤ 0.25
5,YEQF,≤ 0.25
6,LYNY,≤ 0.25
7,AHKV,≤ 0.25
8,VDSF,≤ 0.25
9,PTPR,≤ 0.25
10,AMWR,≤ 0.25
11,ELGR,≤ 0.25
12,SFYK,≤ 0.25
13,QTYL,12.8
14,SMAS,11.6
15,MVWK,≤ 0.25
16,MHMT,≤ 0.25
17,PVSV,≤ 0.25
18,SFPD,≤ 0.25
19,DAWI,≤ 0.25
20,DKPG,≤ 0.25
21,WYMN,≤ 0.25
22,TQMS,4.53
23,HYEM,≤ 0.25
24,WCVF,≤ 0.25
25,AQTH,≤ 0.25
26,EHFG,≤ 0.25

row,Variant,enrichment ratio
1,GLCL,13.5
2,SGSW,≤ 0.25
3,TDKA,≤ 0.25
4,RPSM,≤ 0.25
5,KRVF,≤ 0.25
6,SYFV,≤ 0.25
7,SRWC,≤ 0.25
8,LEEP,≤ 0.25
9,KMIK,≤ 0.25
10,FNGY,≤ 0.25
11,PPQW,≤ 0.25
12,DCGA,≤ 0.25
13,PQCS,≤ 0.25
14,ALVV,0.91
15,EGLS,≤ 0.25
16,KVVQ,≤ 0.25
17,KENG,≤ 0.25
18,GRWT,≤ 0.25
19,WQER,≤ 0.25
20,GQYS,≤ 0.25
21,NLKW,≤ 0.25
22,HYNC,≤ 0.25
23,RNMK,≤ 0.25

# Reference: a collection of fitness landscapes (doi:10.1126/science.1257360)
